# Results reported in PubChem BioAssay (Tox21).
# Values joined by “and” are separate entries in the source; they are usually repeats but may differ in a detail not shown here. Identical values can stand only once. Inconclusive means that the source gave no clear call. Such entries were picked first, then a sample of the others. For part of these data: Potencies beside an inconclusive call are fits to weak or partial responses and may not hold up. Active and inactive are the calls of the source. Unless noted, the call rests on the fitted dose curve.
# Legend:
# [1] = qHTS assay to identify small molecule agonists of H2AX - cell viability counter screen (AID 1224847); further: nearly all actives have a fitted effect of over 30% in size; further: potency means the concentration at half of the fitted maximal effect
# Outline: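 Compounds tested at 15 concentrations were incubated 3 hr at 37C with wild-type CHO-K1 cells; cellular ATP-based luminescence (CellTiter-Glo) indicated viability.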
# [2] = qHTS assay to identify small molecule agonists of the hypoxia (HIF-1) signaling pathway (AID 1224846; active means well fitted activation curve with a large enough effect in the signal ratio in the repeat runs, not every such curve was filed as active; inconclusive means weak or mixed curves; the % refers to the signal ratio; further: potency means the concentration at half of the fitted maximal effect; on activation: on the % scale 0 is the no-effect control and ±100 the full control effect); conditions: HRE-bla ME-180 cells, beta-lactamase ratio, 17 h; activation: at 76.8 µM (top of the series) unless noted
# Outline: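 Hypoxia-pathway activation was scored as increased beta-lactamase from an HRE-controlled reporter in ME-180 cells; plated at 2,000 cells per well with 0.5% dialyzed FBS, they were exposed 17 hrs to compounds and then given CCF4-AM.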
# [3] = qHTS assay to identify small molecule agonists of H2AX (AID 1224845; active means well fitted activation curve with a large enough effect in the signal ratio in the repeat runs, not every such curve was filed as active; inconclusive means weak or mixed curves; the % refers to the signal ratio; further: potency means the concentration at half of the fitted maximal effect; on activation (H2AX phosphorylation): on the % scale 0 is the no-effect control and ±100 the full control effect); conditions: CHO-K1 phospho-H2AX Ser139 HTRF, 3 h; activation (H2AX phosphorylation): at 154 µM (top of the series) unless noted
# Outline: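 Phospho-H2AX Ser139 measured by HTRF (ex 320 nm; em 665 and 620 nm) after 24 hr antibody incubation. Compounds, 15 concentrations, 0.76% DMSO, were applied to CHO-K1 cells for 3hr at 37C before lysis.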
# [4] = qHTS RealTime-Glo MT Cell Viability Assay in HEK293 cells - 32 hour (AID 1224868; active means well fitted curve in the direction sought with a large enough effect in the repeat runs; inconclusive means weak or mixed curves; inactive means no such curve, though single readings can be large; an effect the other way counts as inactive or inconclusive; further: nearly all actives have a fitted effect of over 50% in size; further: potency means the concentration at half of the fitted maximal effect)
# Outline: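 Cells + reagent dispensed (600 cells/well, HEK293) → 5 h at 37 C/5% CO2 → 23 nL compound in DMSO pinned → 40 h at 37 C → luminescence read at 0, 8, 16, 24, 32, 40 h.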
# [5] = A CellTox Green Cytotoxicity Assay to monitor cytotoxicity in HEK293 cells - 0 hour (AID 1224869; active means well fitted curve in the direction sought with a large enough effect in the repeat runs; inconclusive means weak or mixed curves; inactive means no such curve, though single readings can be large; an effect the other way counts as inactive or inconclusive; further: potency means the concentration at half of the fitted maximal effect; nearly all actives have a fitted effect of over 50% in size)
# Outline: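 Seeding of HEK293 cells together with cytotoxicity dye preceded a 5 h incubation at 37 C/5% CO2. Test compounds in DMSO were then added and fluorescence monitored across 40 h.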
# [6] = qHTS assay to identify small molecule antagonists of the estrogen related receptor (ERR) signaling pathway from Tox21 library (AID 1224848; active means well fitted curve in the direction sought with a large enough effect in the repeat runs; inconclusive means weak or mixed curves; inactive means no such curve, though single readings can be large; an effect the other way counts as inactive or inconclusive; further: potency means the concentration at half of the fitted maximal effect; nearly all actives have a fitted effect of over 50% in size)
# Outline: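 Reading was by luminescence 30 min after ONE-Glo addition. Before that, ERR cells at 2,000 per well had rested 6 h at 37 C/5% CO2 and then received pin-tooled compounds in DMSO for 18 h at 37 C.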
# [7] = qHTS assay to identify small molecule agonists of the estrogen related receptor (ERR) signaling pathway from Tox21 library (AID 1224849); conditions: ERR reporter cell line, ONE-Glo luciferase, 18 h; at 92.4 µM (top of the series) unless noted; further: on the % scale 0 is the no-effect control and ±100 the full control effect; nearly all actives have a fitted effect of over 15% in size
# Outline: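 Six hours post-seeding at 37 C/5% CO2, ERR cells receive DMSO-solubilised compounds; after 18 h at 37 C, ONE-Glo reagent is applied and luminescence recorded.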
# Tags describe the fitted curve by direction and shape or compound fluorescence and quenching.
structure (smiles),measurement,setting,value
CCOC(=O)CC(C(C)=O)C(C)=O,Potency,[1],"inconclusive: 2.53 µM [cytotoxic, single point]"
O=P(O)(O)C(O)(Cc1cccnc1)P(=O)(O)O,Potency,[2],inactive
CCCCOC(=O)CCC(C)=O,Potency,[1],"inconclusive: 1.79 µM [cytotoxic, partial curve]"
CCc1cc(C(N)=S)ccn1,Potency,[1],inactive
CCCCCCCCCCC[C@@H](C[C@@H]1OC(=O)[C@H]1CCCCCC)OC(=O)[C@H](CC(C)C)NC=O,Potency,[3],"inconclusive: 39.1 µM [inhibitor, partial curve, poor fit]"
same,Potency,[1],"inconclusive: 55.2 µM [cytotoxic, single point]"
same,Potency,[4],active: 9.52 µM
COC(=O)[C@@H](N)Cc1ccc(O)c(O)c1,Potency,[3],"inconclusive: 24.7 µM [cytotoxic, partial curve]"
same,Potency,[1],inactive
same,Potency,[4],inactive
CCCCCCCC/C=C\CCCCCCCC(N)=O,Potency,[2],"inconclusive: 61.6 µM [falling, single point]"
same,Potency,[1],"inconclusive: 113 µM [cytotoxic, single point]"
same,Potency,[4],"inconclusive: 54.9 µM [cytotoxic, single point]"
CCOC(N)=O,Potency,[2],"inconclusive: 1.51 µM [falling, full curve, poor fit]"
CN(Cc1ccc(C(C)(C)C)cc1)Cc1cccc2ccccc12,Potency,[2],inactive
CN(C)CC/C=C1/c2ccccc2COc2ccc(CC(=O)O)cc21,Potency,[2],inactive
NNc1ccc(C(=O)O)cc1,Potency,[3],"inconclusive: 114 µM [falling, single point]"
same,Potency,[4],"inconclusive: 49.5 µM [rising, partial curve, poor fit]"
C=C(C)C1CC=C(C)CC1 (stereo not drawn),Potency,[2],"inconclusive: 40.3 µM [rising, partial curve]"
C=CC(C)(CCC=C(C)C)OC(=O)c1ccccc1 (stereo not drawn),Potency,[3],inconclusive: 101 µM [activator]
same,Potency,[4],inactive
c1ccc(Cc2ccccc2)cc1,Potency,[2],inactive
C[C@H]1[C@H](NC(=O)/C(=N/OC(C)(C)C(=O)O)c2csc(N)n2)C(=O)N1S(=O)(=O)O (stereo in doubt),Potency,[1],inactive
CCCCCCN,Potency,[2],"inconclusive: 61.6 µM [rising, partial curve, poor fit]"
same,Potency,[1],inactive
C=C(C)C(=O)OC(C)C,Potency,[2],inactive
O=S(=O)(O)c1ccc2nc(-c3ccccc3)[nH]c2c1,Potency,[1],active: 30.3 µM and active: 22 µM
C/C(CC(C)C)=N\O,Potency,[2],inactive
COC(=O)C1=C(C)NC(C)=C(C(=O)OCCc2ccc(N3CCN(C(c4ccccc4)c4ccccc4)CC3)cc2)C1c1cccc([N+](=O)[O-])c1 (stereo not drawn),Potency,[2],"inconclusive: 23.9 µM [falling, partial curve]"
C=O,Potency,[2],inactive
CC1(C)S[C@@H]2[C@H](NC(=O)COc3ccccc3)C(=O)N2[C@H]1C(=O)O,Potency,[3],inactive
same,Potency,[5],"inconclusive: 21.9 µM [activator, single point]"
CCCC(CC)c1ccccc1 (stereo not drawn),Potency,[1],inactive
O=C(c1ccccc1)C1CCCCC1,Potency,[1],inactive
Nc1nc(N)c2nc(CNc3ccc(C(=O)N[C@@H](CCC(=O)O)C(=O)O)cc3)cnc2n1,activation (H2AX phosphorylation),[3],inconclusive: 16.7%
same,Potency,[6],"inconclusive: 0.0806 µM [inhibitor, full curve, poor fit]"
same,Potency,[4],"inconclusive: 0.0645 µM [cytotoxic, full curve, poor fit]"
Brc1c2ccccc2c(Br)c2ccccc12,activation,[2],inconclusive: 13.9% [at 7.01 µM]
CC(Cc1cccc(C(F)(F)F)c1)NCCOC(=O)c1ccccc1 (stereo not drawn),Potency,[3],inactive
same,Potency,[1],"inconclusive: 55.2 µM [cytotoxic, single point]"
same,Potency,[4],"inconclusive: 26.8 µM [cytotoxic, single point]"
CCO/C([O-])=N/c1c[n+](N2CCOCC2)no1,Potency,[1],inactive
CCOC(=O)/C=C(C)/C=C/C=C(C)/C=C/c1c(C)cc(OC)c(C)c1C,Potency,[2],"inconclusive: 19 µM [activator, partial curve]"
same,Potency,[1],"inconclusive: 27.7 µM [cytotoxic, partial curve]"
same,Potency,[4],"inconclusive: 10.7 µM [cytotoxic, partial curve, poor fit]"
COC(=O)CC#N,Potency,[1],inactive
CC(C)Oc1ccccc1O,"activity change, positive = activation",[7],inconclusive: 19.7%
CCCCCCCCCCCCCCCCOP(=O)([O-])OCC[N+](C)(C)C,"activity change, positive = activation",[7],inconclusive: 13.1% [at 42.5 µM]
